Source: US11618753B2 (priority 2018, dated 2023)

test system: MLKL phosphorylation, HT29-L23 human colorectal adenocarcinoma cells; assay: cells; conditions: read-out: pMLKL HCS Cell Assay (IC50, uM)

Question: `COc1ncc(-c2cc(C(F)(F)F)c3c(N)ncnn23)cc1C(=O)NC1CN(C(C)c2c(C)noc2C)C[C@@H]1F` (stereo partly drawn) [Example 1401, 5-[4-amino-5-(trifluoromethyl)-pyrrolo[2,1-f][1,2,4]triazin-7-yl]-N-[(3R,4S)-1-[1-(3,5-dimethyl-1,2-oxazol-4-yl)-ethyl]-4-fluoropyrrolidin-3-yl]-2-methoxypyridine-3-carboxamide] was tested. Which IC50 did it give?
Answer: The IC50 was 0.078 µM.

Question: For `COc1ncc(-c2cc(C(F)(F)F)c3c(N)ncnn23)cc1C(=O)N[C@@H]1CN(C(C)c2cscn2)C[C@@H]1F` (stereo partly drawn) [Example 1402, 5-[4-amino-5-(trifluoromethyl)-pyrrolo[2,1-f][1,2,4]triazin-7-yl]-N-[(3R,4S)-4-fluoro-1-[1-(1,3-thiazol-4-yl)ethyl]-pyrrolidin-3-yl]-2-methoxy-pyridine-3-carboxamide], which IC50 is on record?
Answer: The IC50 was 0.017 µM.

Question: Which IC50 does the source give for `COc1ncc(-c2cc(C(F)(F)F)c3c(N)ncnn23)cc1C(=O)N[C@@H]1CN(C(C)c2sc(C)nc2C)C[C@@H]1F` (stereo partly drawn) [Example 1404, 5-[4-amino-5-(trifluoromethyl)-pyrrolo[2,1-f][1,2,4]triazin-7-yl]-N-[(3R,4S)-1-[1-(2,4-dimethyl-1,3-thiazol-5-yl)-ethyl]-4-fluoropyrrolidin-3-yl]-2-methoxypyridine-3-carboxamide] here?
Answer: The IC50 was 0.093 µM.

Question: `COc1ncc(-c2cc(C(F)(F)F)c3c(N)ncnn23)cc1C(=O)N[C@@H]1CN(C(C)(C)C(C)(C)O)C[C@@H]1F` [Example 1405, 5-(4-Amino-5-(trifluoromethyl)pyrrolo[2,1-f][1,2,4]triazin-7-yl)-N-((3R,4S)-4-fluoro-1-(3-hydroxy-2,3-dimethylbutan-2-yl)pyrrolidin-3-yl)-2-methoxynicotinamide] was tested. Which IC50 did it give?
Answer: Its IC50 is 0.038 µM.

Question: With `COc1ncc(-c2cc(C(F)(F)F)c3c(N)ncnn23)cc1C(=O)N[C@@H]1CN(C(=O)OC2CC(F)(F)C2(F)F)C[C@@H]1F` (stereo partly drawn) [Example 1417, 2,2,3,3-Tetrafluorocyclobutyl (3R,4S)-3-(5-(4-amino-5-(trifluoromethyl)pyrrolo[2,1-f][1,2,4]triazin-7-yl)-2-methoxynicotinamido)-4-fluoropyrrolidine-1-carboxylate] as the compound, how does the IC50 read?
Answer: The IC50 was 0.0049 µM.

Question: With `COc1ncc(-c2cc(C(F)(F)F)c3c(N)ncnn23)cc1C(=O)N[C@@H]1CN(C(=O)O[C@@H](CO)CC(C)C)C[C@@H]1F` [Example 1418, (R)-1-Hydroxy-4-methylpentan-2-yl (3R,4S)-3-(5-(4-amino-5-(trifluoromethyl)pyrrolo[2,1-f][1,2,4]triazin-7-yl)-2-methoxynicotinamido)-4-fluoropyrrolidine-1-carboxylate] as the compound, how does the IC50 read?
Answer: Its IC50 is 0.132 µM.

Question: How did the IC50 turn out when `COCCOC(=O)N1C[C@H](F)[C@H](NC(=O)c2cc(-c3cc(C(F)(F)F)c4c(N)ncnn34)cnc2OC)C1` [Example 1419, 2-methoxyethyl (3R,4S)-3-{5-[4-amino-5-(trifluoromethyl)pyrrolo[2,1-f][1,2,4]triazin-7-yl]-2-methoxypyridine-3-amido}-4-fluoropyrrolidine-1-carboxylate] was run?
Answer: The IC50 was 0.099 µM.

Question: How did the IC50 turn out when `COc1ncc(-c2cc(C(F)(F)F)c3c(N)ncnn23)cc1C(=O)N[C@@H]1CN(C(=O)Oc2ccccc2)C[C@@H]1F` [Example 1421, phenyl (3R,4S)-3-{5-[4-amino-5-(trifluoromethyl)pyrrolo[2,1-f][1,2,4]triazin-7-yl]-2-methoxypyridine-3-amido}-4-fluoropyrrolidine-1-carboxylate] was run?
Answer: Its IC50 is 0.274 µM.

Question: Which IC50 does the source give for `CCCCOC(=O)N1C[C@H](F)[C@H](NC(=O)c2cc(-c3cc(C(F)(F)F)c4c(N)ncnn34)cnc2OC)C1` [Example 1423, butyl (3R,4S)-3-{5-[4-amino-5-(trifluoromethyl)pyrrolo[2,1-f][1,2,4]triazin-7-yl]-2-methoxypyridine-3-amido}-4-fluoropyrrolidine-1-carboxylate] here?
Answer: The IC50 was 0.025 µM.

Question: Which IC50 does the source give for `CCC(C)OC(=O)N1C[C@H](F)[C@H](NC(=O)c2cc(-c3cc(C(F)(F)F)c4c(N)ncnn34)cnc2OC)C1` (stereo partly drawn) [Example 1424, butan-2-yl (3R,4S)-3-{5-[4-amino-5-(trifluoromethyl)pyrrolo[2,1-f][1,2,4]triazin-7-yl]-2-methoxypyridine-3-amido}-4-fluoropyrrolidine-1-carboxylate] here?
Answer: The IC50 was 0.0025 µM.

Question: For `C=CCOC(=O)N1C[C@H](F)[C@H](NC(=O)c2cc(-c3cc(C(F)(F)F)c4c(N)ncnn34)cnc2OC)C1` [Example 1426, prop-2-en-1-yl (3R,4S)-3-{5-[4-amino-5-(trifluoromethyl)pyrrolo[2,1-f][1,2,4]triazin-7-yl]-2-methoxypyridine-3-amido}-4-fluoropyrrolidine-1-carboxylate], which IC50 is on record?
Answer: The IC50 was 0.011 µM.

Question: Which IC50 does the source give for `COc1ncc(-c2cc(C(F)(F)F)c3c(N)ncnn23)cc1C(=O)N[C@@H]1CN(C(=O)OC(C)C(C)C)C[C@@H]1F` (stereo partly drawn) [Example 1428, 3-methylbutan-2-yl (3R,4S)-3-{5-[4-amino-5-(trifluoromethyl)pyrrolo[2,1-f][1,2,4]triazin-7-yl]-2-methoxypyridine-3-amido}-4-fluoropyrrolidine-1-carboxylate] here?
Answer: Its IC50 is 0.0029 µM.

Question: Which IC50 does the source give for `COCC(C)OC(=O)N1C[C@H](F)[C@H](NC(=O)c2cc(-c3cc(C(F)(F)F)c4c(N)ncnn34)cnc2OC)C1` (stereo partly drawn) [Example 1429, 1-methoxypropan-2-yl (3R,4S)-3-{5-[4-amino-5-(trifluoromethyl)pyrrolo[2,1-f][1,2,4]triazin-7-yl]-2-methoxypyridine-3-amido}-4-fluoropyrrolidine-1-carboxylate] here?
Answer: The IC50 was 0.028 µM.

Question: With `COc1ncc(-c2cc(C(F)(F)F)c3c(N)ncnn23)cc1C(=O)N[C@@H]1CN(C(=O)OCC2CCC2)C[C@@H]1F` [Example 1431, cyclobutylmethyl (3R,4S)-3-{5-[4-amino-5-(trifluoromethyl)pyrrolo[2,1-f][1,2,4]triazin-7-yl]-2-methoxypyridine-3-amido}-4-fluoropyrrolidine-1-carboxylate] as the compound, how does the IC50 read?
Answer: Its IC50 is 0.0055 µM.

Question: For `CCOCCOC(=O)N1C[C@H](F)[C@H](NC(=O)c2cc(-c3cc(C(F)(F)F)c4c(N)ncnn34)cnc2OC)C1` [Example 1432, 2-ethoxyethyl (3R,4S)-3-{5-[4-amino-5-(trifluoromethyl)pyrrolo[2,1-f][1,2,4]triazin-7-yl]-2-methoxypyridine-3-amido}-4-fluoropyrrolidine-1-carboxylate], which IC50 is on record?
Answer: Its IC50 is 0.291 µM.

Question: Which IC50 does the source give for `COc1ncc(-c2cc(C(F)(F)F)c3c(N)ncnn23)cc1C(=O)N[C@@H]1CN(C(=O)OC2(C3CC3)CC2)C[C@@H]1F` [Example 1433, [1,1′-bi(cyclopropane)]-1-yl (3R,4S)-3-{5-[4-amino-5-(trifluoromethyl)pyrrolo[2,1-f][1,2,4]triazin-7-yl]-2-methoxypyridine-3-amido}-4-fluoropyrrolidine-1-carboxylate] here?
Answer: The IC50 was 0.011 µM.

Question: `C#CCOC(=O)N1C[C@H](F)[C@H](NC(=O)c2cc(-c3cc(C(F)(F)F)c4c(N)ncnn34)cnc2OC)C1` [Example 1435, prop-2-yn-1-yl (3R,4S)-3-{5-[4-amino-5-(trifluoromethyl)pyrrolo[2,1-f][1,2,4]triazin-7-yl]-2-methoxypyridine-3-amido}-4-fluoropyrrolidine-1-carboxylate] was tested. Which IC50 did it give?
Answer: The IC50 was 0.0076 µM.

Question: `COc1ncc(-c2cc(C(F)(F)F)c3c(N)ncnn23)cc1C(=O)N[C@@H]1CN(C(=O)OCC(F)(F)F)C[C@@H]1F` [Example 1437, 2,2,2-trifluoroethyl (3R,4S)-3-{5-[4-amino-5-(trifluoromethyl)pyrrolo[2,1-f][1,2,4]triazin-7-yl]-2-methoxypyridine-3-amido}-4-fluoropyrrolidine-1-carboxylate] was tested. Which IC50 did it give?
Answer: The IC50 was 0.003 µM.

Question: With `CC#CCOC(=O)N1C[C@H](F)[C@H](NC(=O)c2cc(-c3cc(C(F)(F)F)c4c(N)ncnn34)cnc2OC)C1` [Example 1438, but-2-yn-1-yl (3R,4S)-3-{5-[4-amino-5-(trifluoromethyl)pyrrolo[2,1-f][1,2,4]triazin-7-yl]-2-methoxypyridine-3-amido}-4-fluoropyrrolidine-1-carboxylate] as the compound, how does the IC50 read?
Answer: The IC50 was 0.136 µM.

Question: `COc1ncc(-c2cc(C(F)(F)F)c3c(N)ncnn23)cc1C(=O)N[C@@H]1CN(C(=O)OCC2CC2)C[C@@H]1F` [Example 1439, cyclopropylmethyl (3R,4S)-3-{5-[4-amino-5-(trifluoromethyl)pyrrolo[2,1-f][1,2,4]triazin-7-yl]-2-methoxypyridine-3-amido}-4-fluoropyrrolidine-1-carboxylate] was tested. Which IC50 did it give?
Answer: Its IC50 is 0.0019 µM.

Question: With `C=CC(C)OC(=O)N1C[C@H](F)[C@H](NC(=O)c2cc(-c3cc(C(F)(F)F)c4c(N)ncnn34)cnc2OC)C1` (stereo partly drawn) [Example 1440, but-3-en-2-yl (3R,4S)-3-{5-[4-amino-5-(trifluoromethyl)pyrrolo[2,1-f][1,2,4]triazin-7-yl]-2-methoxypyridine-3-amido}-4-fluoropyrrolidine-1-carboxylate] as the compound, how does the IC50 read?
Answer: The IC50 was 0.0039 µM.

Question: Which IC50 does the source give for `COc1ncc(-c2cc(C(F)(F)F)c3c(N)ncnn23)cc1C(=O)N[C@@H]1CN(C(=O)OC(C)CC(F)(F)F)C[C@@H]1F` (stereo partly drawn) [Example 1441, 4,4,4-trifluorobutan-2-yl (3R,4S)-3-{5-[4-amino-5-(trifluoromethyl)pyrrolo[2,1-f][1,2,4]triazin-7-yl]-2-methoxypyridine-3-amido}-4-fluoropyrrolidine-1-carboxylate] here?
Answer: Its IC50 is 0.0075 µM.

Question: With `COc1ncc(-c2cc(C(F)(F)F)c3c(N)ncnn23)cc1C(=O)N[C@@H]1CN(C(=O)OC2CCCCC2)C[C@@H]1F` [Example 1442, cyclohexyl (3R,4S)-3-{5-[4-amino-5-(trifluoromethyl)pyrrolo[2,1-f][1,2,4]triazin-7-yl]-2-methoxypyridine-3-amido}-4-fluoropyrrolidine-1-carboxylate] as the compound, how does the IC50 read?
Answer: The IC50 was 0.016 µM.

Question: How did the IC50 turn out when `COc1ncc(-c2cc(C(F)(F)F)c3c(N)ncnn23)cc1C(=O)N[C@@H]1CN(C(=O)OC(C)C)C[C@@H]1F` [Example 1443, propan-2-yl (3R,4S)-3-{5-[4-amino-5-(trifluoromethyl)pyrrolo[2,1-f][1,2,4]triazin-7-yl]-2-methoxypyridine-3-amido}-4-fluoropyrrolidine-1-carboxylate] was run?
Answer: The IC50 was 0.0029 µM.

Question: How did the IC50 turn out when `COc1ncc(-c2cc(C(F)(F)F)c3c(N)ncnn23)cc1C(=O)N[C@@H]1CN(C(=O)OCCC(F)(F)F)C[C@@H]1F` [Example 1444, 3,3,3-trifluoropropyl (3R,4S)-3-{5-[4-amino-5-(trifluoromethyl)pyrrolo[2,1-f][1,2,4]triazin-7-yl]-2-methoxypyridine-3-amido}-4-fluoropyrrolidine-1-carboxylate] was run?
Answer: The IC50 was 0.0048 µM.
